# Hit rate of the full screen: of about 310,000 compounds, about 14,000 (4.5%) showed an effect of 50% or more. Effects have a minus sign here. The list shows a part of the results.
# Molecular target: human ether-à-go-go-related gene (hERG) potassium channel (human, UniProt Q12809)
# Experiment: primary screen, population patch clamp on CHO cells stably expressing hERG
# 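Also: peak tail current of the secondary pulse compared with the same well before compound.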
# Chain of human ether-à-go-go-related gene (hERG) potassium channel (Q12809 whole entry, looked up): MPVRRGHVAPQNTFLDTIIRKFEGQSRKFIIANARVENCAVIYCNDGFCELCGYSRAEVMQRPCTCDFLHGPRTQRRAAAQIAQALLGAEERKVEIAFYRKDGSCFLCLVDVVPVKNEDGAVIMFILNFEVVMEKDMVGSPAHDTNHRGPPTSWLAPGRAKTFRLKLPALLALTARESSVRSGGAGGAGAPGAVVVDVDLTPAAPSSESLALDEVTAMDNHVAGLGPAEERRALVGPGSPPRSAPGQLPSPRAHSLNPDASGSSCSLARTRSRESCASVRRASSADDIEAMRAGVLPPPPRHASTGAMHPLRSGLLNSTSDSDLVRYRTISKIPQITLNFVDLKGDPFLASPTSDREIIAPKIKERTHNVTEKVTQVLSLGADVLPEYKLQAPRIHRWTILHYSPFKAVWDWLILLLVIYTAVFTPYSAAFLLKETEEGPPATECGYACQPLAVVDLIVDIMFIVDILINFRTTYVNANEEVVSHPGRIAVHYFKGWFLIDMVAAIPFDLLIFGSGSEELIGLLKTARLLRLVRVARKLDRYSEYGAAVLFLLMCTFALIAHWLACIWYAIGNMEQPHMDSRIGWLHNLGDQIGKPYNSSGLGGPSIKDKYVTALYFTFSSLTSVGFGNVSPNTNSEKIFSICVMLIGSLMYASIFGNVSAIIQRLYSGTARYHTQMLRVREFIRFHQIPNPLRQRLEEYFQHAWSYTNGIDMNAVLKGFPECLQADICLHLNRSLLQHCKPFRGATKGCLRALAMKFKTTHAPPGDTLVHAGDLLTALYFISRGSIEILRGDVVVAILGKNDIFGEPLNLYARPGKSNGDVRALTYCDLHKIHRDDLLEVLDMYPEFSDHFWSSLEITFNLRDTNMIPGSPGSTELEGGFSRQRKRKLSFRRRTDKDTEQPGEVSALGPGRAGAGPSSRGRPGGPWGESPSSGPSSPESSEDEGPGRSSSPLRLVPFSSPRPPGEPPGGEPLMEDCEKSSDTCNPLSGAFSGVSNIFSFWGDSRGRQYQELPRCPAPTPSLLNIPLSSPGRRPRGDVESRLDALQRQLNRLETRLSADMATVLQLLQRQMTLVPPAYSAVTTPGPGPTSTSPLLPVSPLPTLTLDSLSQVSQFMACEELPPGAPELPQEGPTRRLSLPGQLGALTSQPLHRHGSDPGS
row,SMILES,"hERG current change (%, negative = inhibition) at 10uM [%]"
1,COc1ccc(S(=O)(=O)N(C)CC(=O)N2CCOCC2)cc1Cl,10.2
2,COc1ccc(C(C(=O)NCC2CCCO2)N(C(=O)CNC(=O)c2cccs2)c2ccccc2C)cc1OC (centres unmarked),-1.91
3,O=C(C1=C(O)C(=O)N(CCN2CCOCC2)C1c1ccco1)c1cc2ccccc2o1 (centres unmarked),-3.97
4,CCOC(=O)c1cc(C#N)c(SC(C)C(=O)NC2CCCCC2)nc1C (centres unmarked),12.8
5,CCCOc1ccc(C2C(C(=O)c3ccco3)=C(O)C(=O)N2CCN2CCOCC2)cc1OC (centres unmarked),18.5
6,CC(=O)Oc1cc(OC(C)=O)c2c(C)cc(=O)oc2c1,14.6
7,Cc1ccc(CS(=O)(=O)CCC(=O)N2CCC3(CC2)OCCO3)cc1,-2.79
8,C=CCSc1nnc(-c2cnn(-c3ccccc3)c2-n2cccc2)n1C,-22
9,CCCCOc1ccc(S(=O)(=O)Nc2ccc(NC(C)=O)cc2)cc1,-13.7
10,CCc1ccc[n+](-c2[nH]c(=O)sc2/C=N/NC([S-])=Nc2ccccc2)c1,5.39
11,Cc1cc(C(=O)Nc2cccnc2)cs1,0.642
12,O=C(NNc1ccccn1)c1ccccc1CC[N+](=O)[O-],13.3
13,CCCNc1ccc(S(=O)(=O)N(C(C)C)C(C)C)cn1,-22.2
14,CC(=O)Nc1sc2c(c1C(c1cccs1)N1CCOCC1)CCCC2 (centres unmarked),11.5
15,COc1ccc(C(=O)NNC(=O)CSc2nnc(COc3ccc4ccccc4c3)n2C)cc1,5.45
16,CCN(CC)S(=O)(=O)c1cccc(C(=O)Nc2ccc3c(c2)OCO3)c1,-23.2
17,Cc1ccc(CNc2cc(C(=O)O)ccc2C)s1,19.2
18,O=C(CCC(=O)OCC(=O)c1ccc(Br)cc1)NC1CCCCC1,-4.23
19,COCCCn1c(=O)/c(=C\c2ccccc2OC(F)F)s/c1=C(/C#N)C(=O)NCCOC,-11.5
20,COCCCn1c(SCC(=O)NC2CCCCC2)nnc1-c1ccncc1,19.8
21,O=C(NCc1ccccc1)c1cccc(F)c1F,17.3
22,O=C(CN1C(=O)NC2(CCc3ccccc3C2)C1=O)Nc1ccc(Cl)cc1F (centres unmarked),6.79

row,SMILES,"hERG current change (%, negative = inhibition) at 10uM [%]"
1,COc1cc(C(=O)NCc2ccc(F)cc2)cc(Cl)c1OC,17
2,CCOc1ccc(C2SCC(=O)Nc3c2c(C)nn3C2CCOC(C)(C)C2)cc1 (centres unmarked),6.41
3,CC[N+]1=CN(c2ccccc2)C(C)=CC1(C)C.[I-],12.3
4,O=C(Nc1ccc(N2C(=O)C3C4C=CC(C4)C3C2=O)cc1)Nc1nncs1 (centres unmarked),-7.52
5,O=C(O)/C(=C1\OC(=O)c2ccccc21)c1ccccc1,-3.5
6,Cc1nonc1CN(C)C(=O)CC1C(=O)NCCN1Cc1cccc(C(F)(F)F)c1 (centres unmarked),1.99
7,O=C(CNc1ccc2ccccc2c1)NNC1=NCCC1,12
8,Cc1c(C(=O)O)cccc1N1C(=O)Nc2ccccc2N1O,46.2
9,COc1ccc(-c2nc3n(c2C)Cc2ccccc2-3)cc1,-19.1
10,CC1=C(C(=O)O)N2C(=O)C(NC(=O)c3nn(C)cc3Cl)C2SC1 (centres unmarked),12.3
11,CC(=O)N1CCc2cc(S(=O)(=O)CCC(=O)NCCc3ccc(Cl)cc3)ccc21,-7.04
12,CC(C)[C@H](NC(=O)C1CCN(S(=O)(=O)c2ccccc2)CC1)C(=O)NCc1ccco1,13.8
13,Cc1[nH]c2ccccc2c1C(=O)/C=C/c1ccccc1,8.96
14,Cc1ccc(-c2nnc(Nc3ccc4c(c3)nc(C)n4C)c3ccccc23)cc1,5.03
15,COc1ccc(NC(=O)CCCSc2ccccc2)cc1S(N)(=O)=O,-6.03
16,Cc1nn(CC2CC2)c(=O)n1-c1ccc(F)cc1,13.4
17,CSc1nc2c(c(=O)[nH]c(=O)n2C)n1Cc1ccccc1Cl,3.4
18,COC(=O)c1ccc(CNC(=O)COC(=O)C2CC3C=CC2C3)cc1 (centres unmarked),11.2
19,CNC(=O)c1ccccc1-c1cn(C)c2ccccc2c1=O,26.3
20,COc1ccccc1C(=O)Nc1nc(-c2cccs2)c(NC(C)=O)s1,-7.05
21,Brc1nc(Br)n(Cc2ccccc2)n1,28.4
22,Cc1ccc(C)c(C(=O)COC(=O)C2CCN(c3ccc(C(F)(F)F)cn3)CC2)c1,-3.15

row,SMILES,"hERG current change (%, negative = inhibition) at 10uM [%]"
1,CCOc1cccc(C(=O)NC(=S)Nc2ccc3c(c2)OCCO3)c1,7.57
2,CCC1=C2CC[C@H]3C(=O)N(CC)C(=O)[C@H]3[C@H]2[C@@]2(Cc3ccccc3)C(=NCCOC)OC(=O)N2C1=O,10
3,COc1ccc(C(c2nnnn2C2CCCC2)N2CCC(C)CC2)cc1.Cl (centres unmarked),-9.25
4,O=C(Cc1cccs1)N1CCN(S(=O)(=O)c2cc(Cl)ccc2Cl)CC1,-48.4
5,CCOC(=O)N1CCN(C(=O)CSCC(=O)Nc2nc(-c3ccc(-c4ccccc4)cc3)cs2)CC1,-11.9
6,Cc1n[nH]c(=O)c2c(NC(=O)CSc3nnc(-c4ccco4)n3C)oc(C)c12,4.76
7,COc1cccc(OCCCN2CCCCCC2)c1.O=C(O)C(=O)O,-37.8
8,O=C(COc1cccc2c1CCNC2=O)NC1CCCCC1,-13.7
9,COc1ccc(Cc2nc(C(=O)NCc3ccccc3OC)cs2)cc1,-5.16
10,O=c1[nH]ncc(N/N=C\c2cccs2)c1Cl,4.14
11,CN(C)C(CNC(C(=O)Nc1ccc([N+](=O)[O-])cc1Br)c1ccccc1)c1ccccc1 (centres unmarked),-66.5
12,CC1(C)CC(=O)C2=C(C1)Nc1ncnn1C2c1cccs1 (centres unmarked),-1.14
13,O=C(NCC(c1ccco1)N1CCc2ccccc2C1)c1ccc(Cl)c([N+](=O)[O-])c1 (centres unmarked),-55.5
14,O=C(C1CC1)N1CCN(S(=O)(=O)c2ccc3c(c2)OCCO3)CC1,2.65
15,O=c1c2cc(Br)ccc2nc(-c2cccc(Cl)c2)n1O,18.7
16,CCOc1ccc(C2Nc3ccc4ccccc4c3-c3c2c(=O)oc2ccccc32)cc1 (centres unmarked),0.825
17,COC(=O)[C@@H]1C[C@@]2(O)[C@@H](O)[C@@H](O)[C@@H](O)C[C@H]2N1Cc1ccc(Cl)cc1,11.6
18,N#Cc1ccc2c(c1)NC(=O)C1CCCN21 (centres unmarked),-46.9
19,Cc1c(NC(=O)c2noc3c2CCc2ccccc2-3)c(=O)n(-c2ccccc2)n1C,-52.9
20,Cc1ccc(-c2cc([C@H]3[C@@H]4C=CCC[C@@]4(C)C(=O)N3Cc3ccccc3)ccc2F)cc1,8.75
21,O=C(/C=C/c1ccc(OCc2cccc(Cl)c2)cc1)N1CCOCC1,-9.61
22,O=C(CSC1=NS(=O)(=O)c2cc(F)ccc2N1)Nc1ccc(F)cc1,10.5

row,SMILES,"hERG current change (%, negative = inhibition) at 10uM [%]"
1,Cc1cccc(N(C(=O)c2snc(C(N)=O)c2N)C(C(=O)NC2CCCC2)c2ccncc2)c1 (centres unmarked),6.65
2,C=CCn1c(=NC(=O)c2ccco2)sc2cc(C(=O)OCC)ccc21,-3.33
3,COC(=O)CSc1n[nH]c(-c2cccnc2)n1,2.8
4,O=C(/C=C/c1ccco1)c1ccc(NC(=O)C23CC4CC(CC(C4)C2)C3)cc1,22.5
5,COc1ccc(NC(=O)Cn2cc(S(=O)(=O)Cc3ccccc3)c3ccccc32)c(OC)c1,3.12
6,COc1ccccc1C(=O)NC(=O)COC(=O)Cc1n[nH]c(=O)c2ccccc12,1.52
7,COc1ccc(N2CCN(C(=O)C3COc4ccccc4O3)CC2)cc1 (centres unmarked),-22
8,CC(=O)Nc1ccc(NC(=O)C(C)OC(=O)COc2ccc(Nc3ccccc3)cc2)cc1 (centres unmarked),14.1
9,O=C(COC(=O)c1ccccc1Br)Nc1cc(S(=O)(=O)N2CCOCC2)ccc1N1CCCC1,30.1
10,CC(C)=C1C2C=CC1C(C(=O)Nc1cc(C)ccc1C)C2C(=O)O (centres unmarked),12.3
11,O=C(Nc1ccc(Cl)cc1)NN1CC(=O)N(c2cccc(C(F)(F)F)c2)CC1=O,19.6
12,NS(=O)(=O)c1ccc(N2N=C(c3ccccc3)CC2c2ccc(F)cc2)cc1 (centres unmarked),4.94
13,O=C(CN1CCN(c2ccc(O)cc2)CC1)Nc1cc(S(=O)(=O)N2CCCC2)ccc1Cl,-30.5
14,COc1ccc(OCC(=O)N/N=C2\CCc3ccccc32)cc1,-23.9
15,CCCCc1nnc(NC(=O)C2CC(=O)N(Cc3ccccc3)C2)s1 (centres unmarked),-27.4
16,Cc1cc(C)n(CC2CC(=O)N(c3ccc(Cl)cc3)C2=O)n1 (centres unmarked),13.5
17,O=C(CCCc1ccccc1)NCc1cn2ccsc2n1,-12.1
18,Cc1ccc(/C=N/NC(=O)Cn2nnc(N)n2)o1,1.68
19,CCc1cccc(CC)c1NC(=O)c1cccc(N)c1,-16.5
20,Nc1ccc(N2CCCCC2)c(S(=O)(=O)Nc2ccc(Cl)cc2)c1,-10.3

# — paper PMC4336329 (PLoS ONE, 2015)
